# Measured values published in the supplement of paper PMC8728848.
# This is one part of the list.
# B1: CwpV (Clostridium difficile), B6EFG6 (protein)
# chain: MKIPKKIAAMLTVTMIAGSSTAGIASAQTVATNLTGQERYETAVKISQDGWKNADEVVIVNDSSIADALSATPFAKAKNAPILLTSKDKLNDKTKAEIQRLKAKKVYLIGGTSVLSTNIEKEIKDLKISFERISGAERYQTSLELAKKLDAISDVKKIAVVNGEKGLADAVSVGAPAAQNNMPVILADSKNGTAVADKFIKDAGITQSYVVGGESSISEAVKNKLPNSTRLGGTDRNDTNAKVIKEFYKKTDLKNAYVTKDGMNKQDQLIDALAVGVLGAKNQSPVVLVGKNLSASQKSLVNSKSFDKITKVGGNGNETAFNEMKSLQEVKTVEAKTISELKSAIDKATANDVINFKPTSEVKEAFTIQTDKAVTVNLNGTYTKTVTINMPNGDVNNYAKVDDVVIDDVKDGTFVNYGKITNLKVNDKNGAKIENNSKGEIGSLTVASGASQVKVTNGGKITTVTNNSKGTTIDNKGTISSVKGDNSPTISGNSPSSNSSGGSSSSGGSSGGSSGGSSSSKVGQIKFSATDKQIKMASGDKTVDPSDNTYILKLTNGTVKDGDVKANVKVAGLPSGLDYTAVGNRSANTITITVSGTTSQSIQNDLNNVSVLVKAGAVSGTGATDSIANTTFEIKKYVAAPAVGQLTFDATDKQIKMASGDKTVDPSDDTYVLTLTKGTAKDGDIKANVEVTGLPSGLDYTAEGDSSANTITIPVSGTASPAVQTDLDNVSVLVKAGAVSETTATDSAANATFEVKKYVAPAVGQLTFDATDKQIKMASGDKTVDPSDDTYVLTLTKGTAKDGDIKANVEVTGLPSGLDYTAEGDSSANTITITVSGTASQAVQTDLDNVSVLVKAGAVSETTATDSAANATFEVKKYVAPAIGQLTFDATDKQIKMASGDKTVDPSDDTYVLTLTKGTAKDGDIKANVEVTGLPSGLDYTAEGDSSANTITITVSGTASQAVQTDLDNVSVLVKAGAVSETTATDSAANATFEVKKHASDPISTIGKISSGLSSLFNILK
# Columns and labels:
# Test in all cases: glycan array binding signal (z-score within array); higher = stronger binding
# Details in all cases: glycan notation: IUPAC condensed, linker removed
# [1] = molecular target: Gal(b1-4)GlcNAc(b1-2)[Gal(b1-4)GlcNAc(b1-4)]Man(a1-3)[Gal(b1-4)GlcNAc(b1-2)[Gal(b1-4)GlcNAc(b1-6)]Man(a1-6)]Man(b1-4)GlcNAc(b1-4)GlcNAc
# How it was run: (§1)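 Negative Z-scores can be read as non-binding. The Z-score is calculated within each array and then averaged across arrays of one protein sequence at different concentrations or buffers and across linkers. Arrays, 3228 in all, were curated from the Consortium for Functional Glycomics database and kept only where the protein sequence was available.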
# [2] = molecular target: Gal(b1-4)GlcNAc(b1-2)[Gal(b1-4)GlcNAc(b1-4)]Man(a1-3)[GlcNAc(b1-4)][Gal(b1-4)GlcNAc(b1-2)Man(a1-6)]Man(b1-4)GlcNAc(b1-4)GlcNAc
# How it was run: as §1
# [3] = molecular target: Gal(b1-4)GlcNAc(b1-2)[Gal(b1-4)GlcNAc(b1-6)]Man(a1-6)[GlcNAc(b1-4)][Gal(b1-4)GlcNAc(b1-2)Man(a1-3)]Man(b1-4)GlcNAc(b1-4)GlcNAc
# How it was run: as §1
# [4] = molecular target: Gal(b1-4)GlcNAc(b1-3)Gal(b1-3)GlcNAc
# How it was run: as §1
# [5] = molecular target: Gal(b1-4)GlcNAc(b1-3)Gal(b1-4)Glc
# How it was run: as §1
# [6] = molecular target: Gal(b1-4)GlcNAc(b1-3)Gal(b1-4)GlcNAc
# How it was run: as §1
# [7] = molecular target: Gal(b1-4)GlcNAc(b1-3)Gal(b1-4)GlcNAc(b1-3)Gal(b1-4)GlcNAc
# How it was run: as §1
# [8] = molecular target: Gal(b1-4)GlcNAc(b1-3)Gal(b1-4)[Fuc(a1-3)GlcNAc(b1-6)]Gal(b1-4)Glc
# How it was run: as §1
# [9] = molecular target: Gal(b1-4)GlcNAc(b1-3)Gal(b1-4)[Fuc(a1-3)]GlcNAc(b1-3)Gal(b1-4)[Fuc(a1-3)]GlcNAc
# How it was run: as §1
# [10] = molecular target: Gal(b1-4)GlcNAc(b1-3)GalNAc
# How it was run: as §1
# [11] = molecular target: Gal(b1-4)GlcNAc(b1-3)[Gal(b1-4)GlcNAc(b1-6)]Gal(b1-4)GlcNAc
# How it was run: as §1
# [12] = molecular target: Gal(b1-4)GlcNAc(b1-3)[Gal(b1-4)GlcNAc(b1-6)]GalNAc
# How it was run: as §1
# [13] = molecular target: Gal(b1-4)GlcNAc(b1-3)[GlcNAc(b1-6)]Gal(b1-4)GlcNAc
# How it was run: as §1
# [14] = molecular target: Gal(b1-4)GlcNAc(b1-6)Gal(b1-4)GlcNAc
# How it was run: as §1
# [15] = molecular target: Gal(b1-4)GlcNAc(b1-6)GalNAc
# How it was run: as §1
# [16] = molecular target: Gal(b1-4)GlcNAc(b1-6)[Gal(b1-3)]GalNAc
# How it was run: as §1
# [17] = molecular target: Gal(b1-6)Gal
# How it was run: as §1
# [18] = molecular target: Gal3S(b1-3)GalNAc
# How it was run: as §1
# [19] = molecular target: Gal3S(b1-3)GlcNAc
# How it was run: as §1
# [20] = molecular target: Gal3S(b1-3)[Fuc(a1-4)]GlcNAc
# How it was run: as §1
# [21] = molecular target: Gal3S(b1-4)Glc
# How it was run: as §1
# [22] = molecular target: Gal3S(b1-4)Glc6S
# How it was run: as §1
# [23] = molecular target: Gal3S(b1-4)GlcNAc
# How it was run: as §1
# [24] = molecular target: Gal3S(b1-4)GlcNAc6S
# How it was run: as §1
# [25] = molecular target: Gal3S(b1-4)[Fuc(a1-3)]Glc
# How it was run: as §1
# [26] = molecular target: Gal3S(b1-4)[Fuc(a1-3)]Glc6S
# How it was run: as §1
# [27] = molecular target: Gal3S4S(b1-4)GlcNAc
# How it was run: as §1
# [28] = molecular target: Gal3S6S(b1-4)GlcNAc
# How it was run: as §1
# [29] = molecular target: Gal3S6S(b1-4)GlcNAc6S
# How it was run: as §1
# [30] = molecular target: Gal4S(b1-4)GlcNAc
# How it was run: as §1
binder,measurement,setting,value
B1,glycan array binding signal (z-score),[1],-0.343
same,glycan array binding signal (z-score),[2],-0.002
same,glycan array binding signal (z-score),[3],-0.283
same,glycan array binding signal (z-score),[4],-0.333
same,glycan array binding signal (z-score),[5],-0.327
same,glycan array binding signal (z-score),[6],0.373
same,glycan array binding signal (z-score),[7],0.96
same,glycan array binding signal (z-score),[8],-0.324
same,glycan array binding signal (z-score),[9],-0.117
same,glycan array binding signal (z-score),[10],-0.289
same,glycan array binding signal (z-score),[11],-0.349
same,glycan array binding signal (z-score),[12],-0.34
same,glycan array binding signal (z-score),[13],-0.322
same,glycan array binding signal (z-score),[14],-0.242
same,glycan array binding signal (z-score),[15],-0.276
same,glycan array binding signal (z-score),[16],-0.313
same,glycan array binding signal (z-score),[17],-0.297
same,glycan array binding signal (z-score),[18],-0.318
same,glycan array binding signal (z-score),[19],-0.305
same,glycan array binding signal (z-score),[20],-0.3
same,glycan array binding signal (z-score),[21],-0.29
same,glycan array binding signal (z-score),[22],-0.201
same,glycan array binding signal (z-score),[23],-0.202
same,glycan array binding signal (z-score),[24],-0.239
same,glycan array binding signal (z-score),[25],0.044
same,glycan array binding signal (z-score),[26],0.036
same,glycan array binding signal (z-score),[27],0.151
same,glycan array binding signal (z-score),[28],-0.333
same,glycan array binding signal (z-score),[29],-0.338
same,glycan array binding signal (z-score),[30],-0.073
